Screen size: about 150,000 compounds; about 540 (0.36%) showed an effect of 50% or more. Some of the results follow.

This test deals with Plasmodium falciparum. The test is described as follows: Primary screen in NF54 nanoGlo assay, in single point, at 2uM, 72h; a lower Z score goes with more inhibition. The following applies: timepoint 72 hour. Format: functional, Erythrocyte.
For orientation: % Inhibition means the change of the read-out against control, counted positive when it falls. For the molecule `Cc1ccnc(-c2noc(-c3ncccc3S(C)(=O)=O)n2)c1`, the “% Inhibition” value was -6% and the Z score is listed as 0.81.

On to `COc1nn(C)cc1CNC(=O)N[C@@H](C)c1cccc(O)c1`, for which the “% Inhibition” value is reported as -3% and the Z score stood at 0.61.

With `Cc1c(NC(=O)CCNC(=O)C2CCCC2)cccc1C(=O)N1CCc2sccc2C1`, the “% Inhibition” value is -3% and the Z score is listed as 0.54.

With `C[C@@H](C(N)=O)N1CCOCC(F)(F)C1`, the “% Inhibition” value is recorded as -14% and the Z score was 1.36.

Take `C[C@@H](CC(=O)c1ccco1)NC(=O)C1(C#N)CCCC1`: the “% Inhibition” value was found to be 33% and the Z score is -3.78.

Consider `Cc1ccc(C)c(N(C(=O)CCN2CCCS2(=O)=O)C(C)C)c1`, for which the “% Inhibition” value was -4% and the Z score is listed as 0.44.

With `CC(C)(C)C1OCCCC1CNS(N)(=O)=O` (stereo unspecified), the “% Inhibition” value came out at 10% and the Z score is recorded as -1.49.

With `COCc1cc(C(=O)Nc2ccc3nc(C)sc3c2)no1`, the “% Inhibition” value is given as -3% and the Z score is on record as 0.47.

`CC(C)[C@H](NC(=O)Nc1cnnn1C)c1cnn(C)c1`: the “% Inhibition” value came out at 5% and the Z score is reported as -0.57.

Turning to `C[C@H](NC(=O)CCC1CCOCC1)c1ncc(Br)cn1`, the “% Inhibition” value was 1% and the Z score was -0.19.

Turning to `COc1ccc(S(=O)(=O)NC[C@H]2Cn3cc(-c4ccc(C)cc4)nc3CO2)cc1`, the “% Inhibition” value is reported as -8% and the Z score is given as 1.03.

As for `O=C(CCC(F)(F)F)N1CC[C@@]2(CCCN(CCc3ccccc3)C2)C1`, the “% Inhibition” value was -24% and the Z score is recorded as 2.16.

As to `Cc1ccc(C)c(CN2CC(=O)N(Cc3cccc(C(F)(F)F)c3)c3ccccc3S2(=O)=O)c1`, the “% Inhibition” value stood at 15% and the Z score was -1.71.

For the molecule `O=S(=O)(N[C@H]1[C@H](O)[C@H](O)C[C@@H]1c1ccccc1)c1ccccc1`, the “% Inhibition” value is given as 15% and the Z score is reported as -1.71.

As for `NC(=O)c1ccc(CNCC2CC3C=CC2C3)cc1` (stereo unspecified), the “% Inhibition” value is recorded as 6% and the Z score was -0.52.

In the case of `CCc1n[nH]c(NS(=O)(=O)c2ccc(C)o2)n1`, the “% Inhibition” value is listed as -8% and the Z score came to 0.91.

With `CCn1nc(-c2ccc(C(=O)N3CCOCC3)cc2)nc1N(C)C`, the “% Inhibition” value is 3% and the Z score was -0.39.

With `C[C@@]1(CCF)NC(=O)N(c2cc(-c3cccs3)on2)C1=O`, the “% Inhibition” value is on record as -4% and the Z score amounted to 0.86.

Regarding `Cc1oc(C2CCN(C(=O)NCCc3ccccc3)CC2)nc1C(=O)N1CCCCC1`, the “% Inhibition” value is reported as 1% and the Z score is listed as -0.11.

Regarding `Cc1cc(C)n([C@@H](CNS(=O)(=O)c2cccnc2)c2cccs2)n1`, the “% Inhibition” value was -1% and the Z score amounted to 0.15.

With `O=C(C1CCOCC1)N1CC[C@H](Oc2cc(C(F)(F)F)ccn2)C1`, the “% Inhibition” value was -13% and the Z score was 2.41.

Take `CN(c1nc2c(c(N3CCOCC3)n1)CN(C(=O)c1cccc(C(F)(F)F)c1)CC2)C1CCCCC1`: the “% Inhibition” value is -1% and the Z score amounted to 0.17.

As to `CCO[C@@H](C)c1ncc(C(=O)NCCC2(OC)CCC2)s1`, the “% Inhibition” value is given as -7% and the Z score is on record as 0.87.

Consider `CCCOc1ccc2c(c1)OCC(C(=O)NCc1nncn1CC)=C2`, for which the “% Inhibition” value worked out at 9% and the Z score was -1.17.

Take `Cc1cn(C)nc1NC(=O)N1CCCCC[C@H]1C(F)(F)F`: the “% Inhibition” value was -16% and the Z score came to 2.11.

For `Cc1ccc(-c2nc(NCc3ccco3)n(S(C)(=O)=O)n2)cc1`, the “% Inhibition” value was -5% and the Z score came to 0.72.

Consider `O=C1CCCN1c1ccc(CNS(=O)(=O)c2cn[nH]c2)cc1`, for which the “% Inhibition” value is on record as -18% and the Z score was 2.15.

As to `CCN(C)c1ccccc1NC(=O)N(CC(F)F)C1CC1`, the “% Inhibition” value is reported as -3% and the Z score worked out at 0.32.

As for `CCOC(=O)c1c(C)c(CCC(=O)NCCN2CCCCC2)n(C)c1C`, the “% Inhibition” value was -4% and the Z score was 0.8.

As to `CCOC[C@@H]1CC(F)(F)CN1C1CN(C(=O)c2c[nH]c3ccccc23)C1`, the “% Inhibition” value is recorded as -14% and the Z score is on record as 1.64.

For the molecule `CC(C)CCn1ccc(NC2CCN(C)CC2)n1`, the “% Inhibition” value is -15% and the Z score was determined as 1.91.

On to `Cc1ccc([C@H]2c3cc(OCc4ccc(C(=O)NCC(C)C)o4)ccc3CCN2C(=O)C2CCCC2)cc1`, for which the “% Inhibition” value is -8% and the Z score is listed as 1.23.

On to `CC(C)(C)n1ncnc1-c1ccccc1-c1nnn[nH]1`, for which the “% Inhibition” value was -1% and the Z score was 0.08.

Take `CN(Cc1nnc2n1CCC2)C(=O)[C@@]1(C)CC1(Cl)Cl`: the “% Inhibition” value is -15% and the Z score is 2.

On to `Cn1c(=O)n(-c2ccc(NC(=O)c3cccs3)cc2)c(=O)n1C`, for which the “% Inhibition” value is given as -11% and the Z score is reported as 1.28.

Take `CC(C)Oc1nc(-c2ccc(C(F)(F)F)cc2)n(-c2ccc(NC(=O)C3CCC3)cc2)n1`: the “% Inhibition” value was found to be 7% and the Z score is on record as -1.17.

Turning to `O=C(Nc1nccs1)C1CC2CCCCC2N1S(=O)(=O)c1ccc2c(c1)OCCO2` (stereo unspecified), the “% Inhibition” value is reported as -5% and the Z score worked out at 0.71.

Take `Cc1cc(-c2noc(CN3CCC(OC[C@H]4CCCO4)CC3)n2)ccc1F`: the “% Inhibition” value is on record as -3% and the Z score is recorded as 0.39.

As for `Cc1n[nH]c(C)c1[C@H](C)NC(=O)CCC(F)(F)F`, the “% Inhibition” value was determined as 5% and the Z score is on record as -0.71.

As to `Cc1cc(C)c(CNC(=O)[C@@H]2CCCc3ccccc32)c(=O)[nH]1`, the “% Inhibition” value is on record as -4% and the Z score came out at 0.67.

Regarding `COc1ccc(Nc2nc(N3CCCC3)nc3c2cnn3C)cc1Cl`, the “% Inhibition” value is listed as 27% and the Z score is listed as -3.01.

On to `NC(=O)C1CCN(c2nc(-c3ccccc3)nc3oc(-c4ccccc4)nc23)CC1`, for which the “% Inhibition” value is on record as -5% and the Z score is 0.66.

As to `Cc1cc(-c2ccc(N3CCOCC3)cc2)c(=O)[nH]n1`, the “% Inhibition” value is on record as -5% and the Z score was found to be 1.04.

In the case of `Cc1oc2ccccc2c1CNc1cnccn1`, the “% Inhibition” value is listed as -7% and the Z score amounted to 1.24.

`CCN1CCN(c2nc3ncn(CC(=O)NCc4ccccc4Cl)c(=O)c3s2)CC1`: the “% Inhibition” value is listed as -9% and the Z score was determined as 1.47.

In the case of `Cc1cc2nc(C(=O)NCCOc3ccccc3F)cc(C)n2n1`, the “% Inhibition” value was -1% and the Z score stood at 0.2.

Consider `Nc1ccc(OCCO)c(OCCO)c1`, for which the “% Inhibition” value was 6% and the Z score is recorded as -0.83.

As for `CCCN(Cc1c(C(C)C)nn(-c2ccccc2)c1Oc1cccc(F)c1)C(=O)c1ccc(Cl)cc1`, the “% Inhibition” value is reported as -6% and the Z score turned out to be 0.95.

Consider `CCCN(CCO)Cc1ccc2c3c(cccc13)C(=O)OC2`, for which the “% Inhibition” value was found to be 2% and the Z score was -0.43.

On to `COc1ccc(C[C@]2(C)OC(c3ccc(C(C)(C)C)cc3)=NN2C(C)=O)cc1`, for which the “% Inhibition” value is listed as -3% and the Z score is 0.52.

As for `O=C(c1cc(F)c(F)c(F)c1)N1CCOC[C@H]1C1CC1`, the “% Inhibition” value is reported as -6% and the Z score was determined as 1.11.

`O=C1[C@@H]2Cc3c([nH]c4ccccc34)C(c3ccccc3)N2C(=O)CN1Cc1ccccc1` (stereo partly specified): the “% Inhibition” value was found to be 7% and the Z score is recorded as -0.89.

Turning to `COc1ccc(Nc2nc(-c3ccccc3)nc3ccccc23)cc1S(=O)(=O)N1CCCCC1`, the “% Inhibition” value came out at 0% and the Z score was -0.07.

The values above are taken from ChEMBL document CHEMBL4888484, “Replenishing the malaria drug discovery pipeline: Screening and hit evaluation of the MMV Hit Generation Library 1 (HGL1) against asexual blood stage Plasmodium falciparum ,using a nano luciferase reporter read-out” (2022).
